Test results taken from US20210020264A1.

What was measured:
[1] = target: PD-1 (as in the cell binding assay); assay: cell binding assay
[2] = target: PD-1 (as in the cell binding assay); assay: ratio of apparent affinity constants from the cell binding assay, activatable antibody against anti-PD-1 monoclonal antibody

| Binder | Kapp (apparent affinity constant) [1] [nM] | Kmask (Kapp PD-1 ActAb/Kapp PD-1 mAb) [2] |
| --- | --- | --- |
| anti-PD-1 monoclonal antibody (antibody, human IgG4 S228P, kappa) heavy: EVQLVESGGGLVQPGGSLRLSCAASGFTFSGYAMSWVRQAPGKGLEWVAYISNSGGNAHYADSVKGRFTISRDNSKNTLYLQMNSLRAEDTAVYYCTREDYGTSPFVYWGQGTLVTVSSASTKGPSVFPLAPCSRSTSESTAALGCLVKDYFPEPVTVSWNSGALTSGVHTFPAVLQSSGLYSLSSVVTVPSSSLGTKTYTCNVDHKPSNTKVDKRV[human IgG4 Fc with S228P (EU numbers) not spelt out] light: DIQLTQSPSSLSASVGDRVTITCRASESVDAYGISFMNWFQQKPGKAPKLLIYAASNQGSGVPSRFSGSGSGTDFTLTISSMQPEDFATYYCQQSKDVPWTFGQGTKLEIKRTVAAPSVFIFPPSDEQLKSGTASVVCLLNNFYPREAKVQWKVDNALQSGNSQESVTEQDSKDSTYSLSSTLTLSKADYEKHKVYACEVTHQGLSSPVTKSFNRGEC | 0.32 |  |
| anti-PD-1 activatable antibody (antibody, human IgG4 S228P, kappa) heavy: EVQLVESGGGLVQPGGSLRLSCAASGFTFSGYAMSWVRQAPGKGLEWVAYISNSGGNAHYADSVKGRFTISRDNSKNTLYLQMNSLRAEDTAVYYCTREDYGTSPFVYWGQGTLVTVSSASTKGPSVFPLAPCSRSTSESTAALGCLVKDYFPEPVTVSWNSGALTSGVHTFPAVLQSSGLYSLSSVVTVPSSSLGTKTYTCNVDHKPSNTKVDKRV[human IgG4 Fc with S228P (EU numbers) not spelt out] light: QGQSGQGTSYCSIEHYPCNTHHGGGSSGGSISSGLLSGRSDNPGGGSDIQLTQSPSSLSASVGDRVTITCRASESVDAYGISFMNWFQQKPGKAPKLLIYAASNQGSGVPSRFSGSGSGTDFTLTISSMQPEDFATYYCQQSKDVPWTFGQGTKLEIKRTVAAPSVFIFPPSDEQLKSGTASVVCLLNNFYPREAKVQWKVDNALQSGNSQESVTEQDSKDSTYSLSSTLTLSKADYEKHKVYACEVTHQGLSSPVTKSFNRGEC | 26.7 | 83.3 |
